Reference: the supplement of paper PMC4466236
Over roughly 33,000 sequences, “E-score (dimensionless, -0.5 to 0.5)” has its median near -0.058; the highest 2% begin near 0.35. The list shows a part of the results.

tested on: MvaT; assay: PBM 8-mer E-score (mean of HK and ME arrays) (E-score (dimensionless, -0.5 to 0.5)); higher = stronger relative binding preference; most listed sequences are background and not binding sites
Description: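 Protein binding microarray: GST-tagged full-length MvaT (P. aeruginosa PAO1) bound to two universal double-stranded 60-mer arrays (ME and HK), each with a constant 25-mer primer and a variable 35-mer region covering all 8-mers. The 8-mer E-score (rank-based, range -0.5 to 0.5, >0.45 = specific binding) is the mean of the two arrays.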

Sequence | PBM 8-mer E-score
AATCCAAC | 0.101
AAGGCTCG | -0.297
CCCTTCGG | -0.401
ACCGCGGC | -0.257
CAACCTGC | -0.136
ACTACCGC | -0.0317
AGACTCCC | -0.295
TGCCTCAA | -0.0684
CACTCCAC | -0.152
ATCTAGGC | -0.161
TCACGAAA | -0.0349
ACGCTTCG | -0.121
CGCCGGCC | -0.216
AGACTCCT | -0.131
ATAATCAA | 0.333
CCATCCGA | -0.19
ATTTGACA | 0.218
TATGATAA | 0.336
AAACGCAT | 0.0996
TCGGGAAA | -0.0403
GTCTAATA | 0.269
CTAAGGGC | -0.264
GCAATTTA | 0.307
AGAGTGCC | -0.173
CGGCGGAG | -0.236

Sequence | PBM 8-mer E-score
CTCGACGA | -0.231
CCTGCTCG | -0.298
CTCAGGGA | -0.168
GCCAATCC | -0.28
GATCGCTA | -0.103
GCACTGGA | -0.132
AAAGTAGA | 0.036
ATGCGGCA | 0.0233
GCAGGGGC | -0.265
AGAAACCG | -0.127
GTCTGATA | 0.15
TATTGGAA | 0.178
ACTTTACA | 0.233
AGGCTCGG | -0.25
ATTGCCGG | -0.116
CAGCGCAC | -0.172
CGCTCTAC | -0.145
CGGATAAA | 0.143
CCCGACTA | -0.0289
GGAGCAAA | -0.231
CGGGGCGC | -0.199
ACGGCGGG | -0.1
AACAGGCC | -0.106
ATGTAATG | 0.205
CCAAACCC | -0.142

Sequence | PBM 8-mer E-score
CAAGCCTC | -0.192
TTCAGAAA | 0.0688
AGTACTTG | 0.295
CGAATATA | 0.355
CGATCAGA | -0.155
ACCTCAAT | 0.0554
TAATTGGA | 0.291
AAGTTTCG | 0.265
AAGTGATA | 0.186
CGACCGCC | -0.236
TAAAATCA | 0.198
CACGGAGA | 0.0353
AACATGTT | 0.295
CGGGCACA | -0.0933
GCCGATAA | 0.182
CTCCAGGA | 0.0255
AACTTACC | 0.28
GACTAAAA | 0.25
ACGTATAG | 0.122
CTAACAAC | -0.0297
GTTTCCAA | 0.128
AGTCCCTA | -0.216
GGGTCAAA | -0.132
ATGCGCAG | -0.0689
ATAGGATA | 0.14

Sequence | PBM 8-mer E-score
AAGGTTGT | 0.0331
CCCGCACA | -0.129
AACCTGGG | -0.274
GCAAAGTA | 0.207
TCCCCACA | -0.239
TTAACTAA | 0.313
GCTTTGCC | -0.22
AGCGGCGA | -0.132
AGTCAATA | 0.151
ACGGATCA | -0.0355
CCGGTATA | 0.0421
AAATTCTA | 0.226
GCTTCCAA | -0.152
CCTTACCC | -0.248
GCGCAGGA | -0.227
CTTCTATA | 0.168
CATACGAG | -0.0518
AATACCCT | -0.0322
AAAAGCCC | -0.218
AGTGAGGA | -0.19
AAAGCTTG | -0.118
GGGTTCTA | -0.21
GTTAGCGA | -0.0488
AAGGAATC | 0.0296
ACACCTGA | -0.0987

Sequence | PBM 8-mer E-score
ACAGGCAG | -0.0744
ACACGGCA | -0.0734
CTCCGCTC | -0.262
ATTACCCG | 0.0471
ATGCTTCC | -0.167
TCAGCTCA | -0.27
CTCCGGTA | -0.227
AAAGTCTG | 0.0761
CACTGACA | -0.00173
CTGTTCAC | -0.0978
CATCAATG | -0.108
GTTTTTGA | 0.138
ATGTACTC | 0.169
ACCCAATG | -0.00445
ACGGCATC | -0.231
AACTTCGT | 0.198
CCCACCCG | -0.0901
GTTGTGCA | 0.0608
AAGACGGT | -0.159
CCGGTGGC | -0.232
ACCTTATC | 0.0334
GCCTTCTA | -0.249
AGCCTCAA | -0.127
AGGCGGAA | -0.193
GGGCGGTA | -0.114

Sequence | PBM 8-mer E-score
TCGCACAA | 0.175
AGGCAACA | 0.0465
ATACATTG | 0.277
ATGTAGGC | -0.106
CACCTTCG | -0.239
GGGTATAC | -0.157
CGAATTAG | 0.118
GCGGACTA | 0.00106
ATAAGTGG | 0.134
AACGTGCG | -0.162
CTACTTCA | 0.024
CGCACCAC | -0.205
TCGCTGAA | -0.175
ACACCAAT | 0.133
CTATATGA | 0.124
TCCTGACA | -0.0341
ACCAGGAT | -0.14
CCTCCGGC | -0.291
GCAGATCA | -0.113
CCTCTACG | -0.244
GCAATTAC | 0.169
TAATCAAA | 0.244
AAACCTAT | 0.0993
CAATAAGG | 0.16
ACTGACCA | -0.12

Sequence | PBM 8-mer E-score
ATGGCGGC | -0.0516
ATTATAGG | 0.304
AAACCAAC | 0.223
CAAGTGCA | 0.0265
AATTACAC | 0.272
ATCGTATA | 0.115
CAGAACTG | 0.0437
AATATTCT | 0.36
AGCGGTAT | 0.0451
CGGACCCA | -0.129
CAGCCAAC | -0.0896
CTATATAA | 0.421
AAGGCAGG | -0.103
AACGTGAG | -0.0776
TATCTGGA | 0.0853
ACTTCTAC | 0.0796
CGCCGACA | -0.115
CACGCCGC | -0.239
AGCGTGTC | -0.134
ACTGTACA | 0.169
TAAAAAAA | 0.321
GGTTGAGA | -0.2
ATTCCTAG | -0.0112
ACGGCTTG | -0.258
CGGTGTGC | -0.155

Sequence | PBM 8-mer E-score
CCACGGTC | -0.022
ACGACCAT | -0.228
CCAACCCA | 0.0271
ATTCAGGC | -0.0885
ACACGGTG | -0.367
CGGATCGA | -0.168
AAAGGCGA | -0.185
GGCGCTAC | -0.31
AGAGCGTC | -0.256
GGCAGCTA | -0.171
GTGCATCA | -0.12
AGGTCAAT | 0.111
CCACTCGG | -0.17
TATACGCA | 0.215
AGTCGCGC | -0.0346
CCGATGAC | -0.175
CGTCCTGC | -0.237
CGATGACC | -0.183
ACAGCGAT | -0.0549
ATCTTTAG | 0.14
CCAGTGCG | -0.176
CATGTTGC | 0.0214
ACCAATTC | 0.0147
CGGCTCCA | -0.242
ATTCCGCC | -0.0889

Sequence | PBM 8-mer E-score
CAAACAGA | 0.137
ATCTAGGA | -0.167
ACAAGCGT | -0.207
AATAAGGT | 0.224
ATGATAAG | 0.2
CAGCCGAA | -0.0963
CACGGGAG | -0.282
ACGGGCCT | -0.295
CGCCGGTA | -0.169
AAACTATT | 0.371
GATCCGGC | -0.298
GTTAAGTA | 0.203
CTCATATA | 0.324
CGCATCCC | -0.262
AATATCGA | 0.28
CGTACGTA | -0.092
AGCGCAGA | -0.1
CGCGAAAC | -0.134
ATGGTGAA | 0.0344
